Reference: publication PMC12040169 (PLOS Biology, 2025)
Some of the results follow.

The compounds below were run on T1, C. trachomatis L2/434/Bu expressing GFP (CTL2-GFP). Settings: total inclusion area; 28.5 h, 10 µM; inhibitor.
T1 construct: L2/434/Bu GFP intracellular growth in HeLa cells
Design: species or system HeLa; C. trachomatis total inclusion area by high-content imaging, normalised to DMSO
In short: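 Imaging read-out: GFP inclusions and Hoechst nuclei captured by high-content imaging after fixation. Inclusion area/number = chlamydial growth; nuclei count = host cell viability. MIC calculated per earlier method.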

| SMILES | % of control remaining |
| --- | --- |
| C=CCOc1ccc(C(=O)C2=C(O)C(=O)N(Cc3cccnc3)C2c2ccc(Cl)cc2)c(C)c1 (stereo not shown) [CBK264716] | 102.081 |
| CN(C)CCCn1c(=O)n(CC(=O)O)c(=O)c2c3c(sc21)CCC3 [CBK286783] | 62.2577 |
| CC(=O)Nc1ccc(S(=O)(=O)N2CCC(n3c(=O)[nH]c4ccccc43)CC2)cc1 [CBK149696] | 91.1411 |
| CN1CCN(C(=O)c2ccc(-c3cccc(C(F)(F)F)c3)nc2N2CCOCC2)CC1 [CBK106194] | 101.522 |
| OCCN1CCN(c2cc(N3CCN(c4ccccn4)CC3)n3nccc3n2)CC1 [CBK037129] | 140.728 |
| Cc1cc(C)n(C(C(=O)NCC2(C)COC2)C(C)C)n1 (stereo not shown) [CBK281758] | 112.226 |
| O=C(NCC1COc2ccccc2O1)C1(c2ccccc2)CCCC1 (stereo not shown) [CBK149524] | 97.9693 |
| Cn1cc(CCNC(=O)N2CCCN(Cc3cccs3)CC2)cn1 [CBK305393] | 39.2672 |
| CC(C)CCN1CCn2nc(CNc3cnccn3)cc2C1 [CBK307540] | 71.7395 |
| Cc1nn(C)c(C)c1NC(=O)CN1CCN(c2cccc(Cl)c2)CC1 [CBK306052] | 67.5838 |
| O=C(NCCN1CCCC1)c1cc2cc(Cl)ccc2[nH]1 [CBK107267] | 61.3543 |
| Cc1nc(C)c(C(=O)C2=C(O)C(=O)N(CCCN3CCOCC3)C2c2ccncc2)s1 (stereo not shown) [CBK235187] | 122.564 |
| O=C1NCC2(C/C=C/CCOc3ccccc31)CCN(Cc1ccccn1)CC2 [CBK292159] | 78.6956 |
| O=C(Nc1ccccc1C(=O)O)c1cccc(NC(=O)c2ccco2)c1 [CBK299774] | 80.8851 |
| O=S(=O)(NCc1ccccn1)c1ccc(Cl)c(Cl)c1Cl [CBK263978] | 93.4359 |
| C=CCOc1ccc(C(=O)C2=C(O)C(=O)N(Cc3cccnc3)C2c2cccnc2)cc1 (stereo not shown) [CBK265167] | 97.2682 |
| COc1ncc(-c2ccc(NCC(C)C)nc2)c(OC)n1 [CBK036934] | 113.499 |
| Cn1c(C(=O)NCCc2ccc(S(=O)(=O)NC(=O)NC3CCCCC3)cc2)cc2ccccc21 [CBK011876] | 132.544 |
| Cc1cc2c(cc1S(=O)(=O)NCc1ccccc1)NC(=O)CO2 [CBK270159] | 98.7978 |
| Cc1cc2nccc(C3CCCN(C(=O)c4ccccc4F)C3)n2n1 (stereo not shown) [CBK284184] | 72.4188 |
| c1ccc(Cn2cc(-c3nccnc3OCc3ccccn3)cn2)cc1 [CBK107088] | 70.3248 |
| COc1ccc2[nH]c(/C(C#N)=C\c3ccc(-c4cc(C(=O)O)ccc4Cl)o3)nc2c1 [CBK268370] | 102.26 |
